Experimental data reported in PubChem BioAssay AID757 (NMMLSC, 2007).
About 520 (0.27%) of roughly 190,000 compounds were called active. The inconclusive results got no clear call from the source; some entries with a clear call stand among them for comparison.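 The calls were made as follows: active = GTP binding activity at least 20 points away from the 100% control level, either lower or higher; inconclusive = compound flagged as likely green fluorescent, judged across all proteins; inactive = the rest.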

Biological target: Ras-related C3 botulinum toxin substrate 1 (Homo sapiens) (UniProt P63000)
Test: wildtype Rac1 GTP binding modulators, primary screen, biochemical, GST-Rac1 beads, flow cytometry, multiplex (AID 757)
Details: fluorescent GTP binding, at 10 µM, actives lie on both sides, 0 = cold GTP competed, 100 = untreated

Q: With `N#CCc1c(C#N)c(N)nc(N2CCN(C=O)CC2)c1C#N` as the compound, how does the GTP binding activity (% of control) read?
A: active: 73%

Q: For `O=S(=O)(c1cccs1)N1CCC(CO)(Cc2cccc(F)c2)CC1`, which GTP binding activity (% of control) is on record?
A: inactive: 99%

Q: `COc1ccc(CC(=O)NC(CC(=O)O)c2cccc([N+](=O)[O-])c2)cc1` (stereo not drawn) was tested. Which GTP binding activity (% of control) did it give?
A: inconclusive: 102%

Q: With `Cc1c(NC(=O)C(C)OC(=O)c2ccc([N+](=O)[O-])s2)c(=O)n(-c2ccccc2)n1C` (stereo not drawn) as the compound, how does the GTP binding activity (% of control) read?
A: inactive: 92%

Q: How did the GTP binding activity (% of control) turn out when `Cc1ccc(CNC(=O)CCOc2ccc(C(C)(C)C)cc2)cc1` was run?
A: inconclusive: 108%

Q: With `CCN(CC)c1ccc(/C=C(/C#N)C(=O)NCc2ccccc2)o1` as the compound, how does the GTP binding activity (% of control) read?
A: inconclusive: 110%

Q: With `Nc1nc(-c2ccccc2)c(N=Nc2ccccc2Cl)s1` as the compound, how does the GTP binding activity (% of control) read?
A: inconclusive: 101%

Q: `CC(=O)OCC(=O)Nc1ccccc1C` was tested. Which GTP binding activity (% of control) did it give?
A: inactive: 98%

Q: For `OCC1CCN(Cc2nc(Cc3ccccc3Cl)no2)CC1`, which GTP binding activity (% of control) is on record?
A: inconclusive: 100%

Q: With `N#CC1=C(N)Nc2nc3ccccc3n2C1c1ccc(Cl)cc1` (stereo not drawn) as the compound, how does the GTP binding activity (% of control) read?
A: inactive: 102%

Q: How did the GTP binding activity (% of control) turn out when `C/C(=N\S(=O)(=O)c1ccc(C)cc1)NC(=S)Nc1ccccc1` was run?
A: inactive: 95%

Q: With `Clc1cccc(Oc2cnc3ccccc3n2)c1` as the compound, how does the GTP binding activity (% of control) read?
A: inconclusive: 103%

Q: Which GTP binding activity (% of control) does the source give for `O=C(CC(=O)N/N=C\c1ccc([N+](=O)[O-])cc1)NCCc1ccccc1` here?
A: inconclusive: 91%

Q: How did the GTP binding activity (% of control) turn out when `COc1ccc(Cl)cc1NC(=S)N1CCN(c2ccccn2)CC1` was run?
A: inconclusive: 93%

Q: For `CCOC(=O)c1sc2nc(C)nc(SCC(=O)NC3CCS(=O)(=O)C3)c2c1C` (stereo not drawn), which GTP binding activity (% of control) is on record?
A: inactive: 97%

Q: With `CC(=O)Nc1ccc(S(=O)(=O)Nc2cccc(NC(=O)C(C)(C)C)c2)cc1` as the compound, how does the GTP binding activity (% of control) read?
A: inconclusive: 102%

Q: `Cc1noc(C)c1S(=O)(=O)N1CCCC(C(=O)c2cccc(OC(C)C)c2)C1` (stereo not drawn) was tested. Which GTP binding activity (% of control) did it give?
A: inactive: 104%

Q: How did the GTP binding activity (% of control) turn out when `CCC(C)(C)n1nnnc1C(C(C)C)N1CCN(C)CC1` (stereo not drawn) was run?
A: inconclusive: 101%

Q: `O=C(c1ccc(F)cc1)N1CCCCC(S(=O)(=O)c2ccccc2)C1=O` (stereo not drawn) was tested. Which GTP binding activity (% of control) did it give?
A: inactive: 109%

Q: With `CCOc1cc(CO)ccc1OCC(=O)N1CCCCC1` as the compound, how does the GTP binding activity (% of control) read?
A: inconclusive: 102%

Q: For `NC(=O)CSc1nnc(C2CC2)n1-c1ccccc1`, which GTP binding activity (% of control) is on record?
A: inactive: 102%

Q: For `O=C(COc1ccc(S(=O)(=O)NC2CCCCC2)cc1)NCc1cccnc1`, which GTP binding activity (% of control) is on record?
A: inconclusive: 92%

Q: How did the GTP binding activity (% of control) turn out when `COc1ccc(-c2nnc3c4ccccc4c(C)nn23)cc1` was run?
A: inconclusive: 101%

Q: For `COC(=O)CNC(=O)c1nn(-c2cccc(OC)c2)c(=O)c2ccccc12`, which GTP binding activity (% of control) is on record?
A: inconclusive: 107%

Q: `Cc1c(Cc2ccccc2)c(=O)oc2cc(OCc3ccc(C(=O)O)cc3)ccc12` was tested. Which GTP binding activity (% of control) did it give?
A: inconclusive: 90%

Q: How did the GTP binding activity (% of control) turn out when `CCN(C(=O)COC(=O)c1cccnc1SC)C1CCS(=O)(=O)C1` (stereo not drawn) was run?
A: inconclusive: 106%

Q: For `C/C(=N\NC(=O)CSc1nc2nc(C)cc(C)n2n1)c1ccccc1`, which GTP binding activity (% of control) is on record?
A: inconclusive: 86%

Q: `Cc1cccc(CSCCNC(=O)CSCc2ccc([N+](=O)[O-])cc2)c1` was tested. Which GTP binding activity (% of control) did it give?
A: inconclusive: 99%

Q: `O=c1cc(O)c2sc3nc(C(F)(F)F)c4c(c3c2[nH]1)CCCCC4` was tested. Which GTP binding activity (% of control) did it give?
A: inconclusive: 90%

Q: `O=C(O)c1c(-c2ccc(Cl)cc2)cn2ccccc12` was tested. Which GTP binding activity (% of control) did it give?
A: inactive: 92%

Q: How did the GTP binding activity (% of control) turn out when `COc1ccc(CN(C)c2nc(-c3cccnc3)nc3ccccc23)cc1OC` was run?
A: inconclusive: 93%

Q: With `COc1ccc2[nH]c3c(NCCC4=CCCCC4)ncnc3c2c1` as the compound, how does the GTP binding activity (% of control) read?
A: inactive: 90%

Q: For `O=C(NC1CCCC1)C(c1ccccc1)N(Cc1cccnc1)C(=O)Cc1cccs1` (stereo not drawn), which GTP binding activity (% of control) is on record?
A: inactive: 100%

Q: Which GTP binding activity (% of control) does the source give for `COc1ccc(N/C=C/c2nc(SC)nnc2C)cc1` here?
A: active: 64%

Q: For `Oc1ccc(NC(=S)N=Nc2c(O)[nH]c3ccccc23)cc1`, which GTP binding activity (% of control) is on record?
A: active: 70%

Q: For `O=[N+]([O-])c1cc(Br)c(O)c(/C=N/Nc2nc3ccccc3s2)c1`, which GTP binding activity (% of control) is on record?
A: inconclusive: 87%

Q: Which GTP binding activity (% of control) does the source give for `CC(C)Cc1nnc(NC(=O)CCc2c[nH]c3ccccc23)s1` here?
A: inconclusive: 96%

Q: How did the GTP binding activity (% of control) turn out when `COc1ccc(NC(=O)N2CCCC2C(=O)NCc2ccc(F)cc2)cc1` (stereo not drawn) was run?
A: inconclusive: 104%

Q: `C=CCNC(=O)c1ccccc1S(=O)c1ccccc1C#N` (stereo not drawn) was tested. Which GTP binding activity (% of control) did it give?
A: inconclusive: 94%

Q: With `S=C(NCC1COc2ccccc2O1)Nc1ccc(Br)cc1` (stereo not drawn) as the compound, how does the GTP binding activity (% of control) read?
A: inconclusive: 98%

Q: For `O=C(O)c1cc([N+](=O)[O-])ccc1NCc1ccccc1`, which GTP binding activity (% of control) is on record?
A: active: 204% [activator]

Q: With `Cc1ccc(C2=NN(CCC(=O)NCc3ccc4c(c3)OCO4)C(=O)CC2)cc1` as the compound, how does the GTP binding activity (% of control) read?
A: inconclusive: 153%

Q: Which GTP binding activity (% of control) does the source give for `COc1cc(/C=N/NC(=O)c2nc(-c3ccccc3)n(-c3ccccc3)n2)ccc1O` here?
A: inconclusive: 98%
